Experimental data from PubChem BioAssay AID1030 (National Center for Advancing Translational Sciences (NCATS), 2008).
The whole screen tested about 220,000 compounds, of which about 16,000 (7.3%) were called active. Inconclusive results, whose numbers are uncertain, are shown with a selection of clear calls. Calls follow the shape of the dose curve; as a rule, active = well fitted inhibition curve with a large enough effect (not every such curve was filed as active); inconclusive = small, poorly fitted or top-dose-only effect, or another doubt; inactive = no such curve, though single readings can be large or run the other way. Potencies of inconclusive entries are doubtful fits and often do not repeat.

Target: Aldehyde dehydrogenase 1A1 (Homo sapiens) (UniProt P00352)
UniProt P00352, sequence (P00352 whole entry, looked up): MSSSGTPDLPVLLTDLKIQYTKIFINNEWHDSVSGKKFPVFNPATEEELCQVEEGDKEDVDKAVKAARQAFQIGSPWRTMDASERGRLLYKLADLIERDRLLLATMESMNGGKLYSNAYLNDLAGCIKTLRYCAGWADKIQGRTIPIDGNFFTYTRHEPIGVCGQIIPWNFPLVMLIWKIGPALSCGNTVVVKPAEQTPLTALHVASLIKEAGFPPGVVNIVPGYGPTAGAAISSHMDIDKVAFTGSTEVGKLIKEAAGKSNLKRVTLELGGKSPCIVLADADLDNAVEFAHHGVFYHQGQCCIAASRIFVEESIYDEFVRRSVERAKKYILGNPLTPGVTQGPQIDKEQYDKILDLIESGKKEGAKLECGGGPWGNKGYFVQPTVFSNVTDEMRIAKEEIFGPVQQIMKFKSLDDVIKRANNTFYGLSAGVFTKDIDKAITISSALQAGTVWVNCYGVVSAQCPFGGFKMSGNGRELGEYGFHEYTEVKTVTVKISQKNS
Assay: qHTS Assay for Inhibitors of Aldehyde Dehydrogenase 1 (ALDH1A1);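 as to activity, negative = inhibition: plate controls were no enzyme wells and a reference inhibitor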
Conditions: Purified ALDH1A1, NADH fluorescence, propionaldehyde substrate; series mostly up to 75.3 µM
Potency is read from the fitted curve at half-maximal effect; tags tell the direction and shape of the fitted curve.

Potency, active:
CCOC(=O)COn1c(=O)c(-c2ccc(OC)c(OC)c2)[n+]([O-])c2ccccc21 35.5 µM
O=C(/C=C/c1ccco1)c1ccc(O)cc1 15 µM
CCOc1ccc2c(c1)cc(CN(C(=O)CC)C1CCCCC1)c1nnnn12 31.6 µM
COc1ccc(S(=O)(=O)NC(CC(=O)NCCc2ccc(OC)c(OC)c2)c2ccco2)cc1 (stereo not drawn) 12.6 µM
C#CCN1C(=O)C(O)(CC(=O)c2cccc(OC)c2)c2ccccc21 (stereo not drawn) 1.58 µM
CC(=O)c1c(C)[nH]c(C(=O)CSc2nc3ccc(C)cc3[nH]2)c1C 25.1 µM
Cc1ccc(C(=O)NC(=S)Nc2ccc(N3CCOCC3)cc2)c(C)c1 31.6 µM

Potency, inconclusive:
CC1Cc2ccccc2N1C(=O)CN1CCC(C(N)=O)CC1 (stereo not drawn) 1.58 µM [inhibitor, partial curve]
COc1ccc(C(=O)Nc2ccc(NC(=O)C(C)C)nc2)cc1 39.8 µM [inhibitor, single point]
O=C(Cc1ccccc1)N1CCN(S(=O)(=O)c2cccc([N+](=O)[O-])c2)CC1 28.2 µM [inhibitor, single point]
CCOC(=O)N1CCC(Nc2ncnc3c2cnn3-c2ccc(C)cc2C)CC1 25.1 µM [inhibitor, partial curve]
Brc1cccc(-c2nnc3sc(CNCc4ccco4)cn23)c1 44.7 µM [inhibitor, single point]
Cc1cccc(NC(=S)NC(=O)CCc2ccccc2)c1 39.8 µM [inhibitor, single point]
OCCCc1nc2n(n1)C(c1ccccc1)C=C(c1ccccc1)N2 (stereo not drawn) 39.8 µM [inhibitor, single point]
Cc1nc2cnc(N3CCNCC3)nc2n(CCc2ccccc2)c1=O 22.4 µM [inhibitor, partial curve]
COc1ccc(-n2c(NN)nc3sc4c(c3c2=O)CCCC4)cc1 23.8 µM [inhibitor, single point]
O=[N+]([O-])c1cnc2nc(-c3ccncc3)nn2c1O 25.1 µM [inhibitor, single point]
CCCCn1c(SCC(=O)NCc2ccccc2)nc2ccc(N3CCOCC3)cc2c1=O 8.91 µM [inhibitor, partial curve]
Cc1nn(-c2ccccc2)c(Cl)c1/C=N/NC(=O)c1ccc(NS(=O)(=O)c2cccs2)cc1 25.1 µM [inhibitor, partial curve]
CCN1C2=C(C(=O)CCC2)C(c2ccc(O)cc2)C2=C1CCCC2=O 37.7 µM [inhibitor, single point]
CCOC(=O)c1c(NC(=O)c2c(-c3ccccc3)noc2C)sc(C)c1-c1ccccc1 35.5 µM [inhibitor, single point]
C=CCn1c(-c2ccccc2)c[nH]c1=S 7.94 µM [inhibitor, partial curve]
CC(C)CN(/C=N/c1sc2c(c1C#N)CCCCC2)CC(C)C 17.8 µM [inhibitor, partial curve]
COCCNC(=O)C(OC(=O)c1cc2oc(C)cc2n1C)C(C)C (stereo not drawn) 25.1 µM [inhibitor, single point]
Clc1ccc2[nH]cc(-c3nnnn3-c3ccccc3)c2c1 23.8 µM [inhibitor, single point]
CCN(CC)C(=O)/C(=C\c1cccc([N+](=O)[O-])c1)NC(=O)c1ccco1 8.91 µM [inhibitor, partial curve]
CN(c1ccccc1)S(=O)(=O)c1ccc(C(=O)Nc2nnc(C3=COCCO3)o2)cc1 39.8 µM [inhibitor, single point]
CC(=O)Nc1ccc(C(=O)/C=C/c2ccco2)cc1 28.2 µM [inhibitor, single point]
CCOc1ccc(-n2c(N)c(C(=O)NCc3cccnc3)sc2=S)cc1 35.5 µM [inhibitor, single point]
Cc1ccc(C2C3=C(CCCC3=O)Nc3[nH]c(=S)[nH]c(=O)c32)cc1 (stereo not drawn) 25.1 µM [inhibitor, single point]
Nc1n[nH]c(-c2ccccc2)n1 44.7 µM [inhibitor, single point]
COc1ccc(CN(Cc2cccnc2)S(=O)(=O)c2ccc(-n3cnnn3)c(C)c2)cc1OC 22.4 µM [inhibitor, single point]
CC(=O)c1cc(CN2CCCCC2)cc(OC(C)C)c1 28.2 µM [inhibitor, single point]

Potency, inactive:
CC(C)c1nc(SCC(=O)Nc2ccc3c(c2)OCCO3)n[nH]1
CCCCNC(=O)CSc1cc(=O)n(C)c2ccccc12
O=C(O)C1Cc2[nH]cnc2C(c2ccccc2O)N1 (stereo not drawn)
COC(=O)c1sc2ncccc2c1OCc1ccc(Cl)cc1
N#Cc1c2n(c(=O)[nH]c1=O)CCCCC2
O=S(=O)(Nc1ccc2c(c1)OCCO2)c1cnc[nH]1
Cc1cccc(C)c1NC(=O)c1ccc(-c2ccc(Cl)cc2Cl)o1
O=C(Nc1cc(C(F)(F)F)cc(C(F)(F)F)c1)c1ccc(Cn2cc(C(F)(F)F)ccc2=O)cc1
CC(C)Cn1c(CNC(=O)c2ccccc2)nc2ccccc21
CCCCNC(=O)CC1NCCNC1=O (stereo not drawn)
CCC(C)Sc1cc(C(F)(F)F)c(C(=O)Nc2ccc(Cl)cc2)cn1 (stereo not drawn)
O=C1CN(c2nnnn2-c2ccccc2)CCN1
COc1ccc(OC)c(S(=O)(=O)Nc2ccc(Oc3ccccc3)cc2)c1
COc1ccc(C/C(O)=C(\C#N)c2nc3ccccc3s2)cc1

activity, negative = inhibition, inactive:
NS(=O)(=O)c1cc2c(cc1Cl)=NC(CCC(=O)O)=NS=2(=O)O -3.92% [at 13.5 µM]
